# Laboratory results as given in the supplement of paper PMC9446081.
# Hit rate of the full screen: of about 39,000 compounds, about 220 (0.56%) showed activity. This is one part of the list.
# Tested on: Escherichia coli K-12 BW25113
# Experiment: relative growth (OD600 normalised to plate interquartile mean) (fraction); higher = less growth inhibition, active = 0.2 or less
# Details: 50 µM; LB; incubation time: overnight (16-24 h)
# 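Also: static incubation at 37 °C against the wild-type strain, values averaged over two biological replicates.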
row,Structure (SMILES),relative growth
1,C[C@H]1CN([C@@H](C)CO)C(=O)CCCn2nncc2CO[C@H]1CN(C)C(=O)Nc1ccc(N2CCCCC2)cc1,inactive: 1.02
2,CCCCCCCC/C=C\CCCCCCCC(=O)O,inactive: 0.899
3,C[C@H]1CCCCO[C@H](CN(C)Cc2ccc(Cl)c(Cl)c2)[C@@H](C)CN([C@@H](C)CO)C(=O)c2cc(NC(=O)Cc3ccccc3)ccc2O1,inactive: 0.987
4,COc1ccc(S(=O)(=O)Nc2cccc3c2O[C@H](CN(C)S(=O)(=O)c2ccc(C)cc2)[C@H](C)CN([C@@H](C)CO)C3=O)cc1,inactive: 1.03
5,Oc1cc(O)c2c(c1)O[C@H](c1ccc(O)c(O)c1)[C@H](O)[C@H]2c1c(O)cc(O)c2c1O[C@H](c1ccc(O)c(O)c1)[C@@H](O)C2,inactive: 0.957
6,C[C@H]1CN([C@@H](C)CO)C(=O)c2cccc(NS(=O)(=O)c3ccccc3)c2O[C@@H]1CN(C)S(=O)(=O)c1ccc(F)cc1,inactive: 1.01
7,Cc1ccc(S(=O)(=O)N(C)C[C@H]2Oc3cc(C#Cc4ccncc4)ccc3S(=O)(=O)N([C@@H](C)CO)C[C@@H]2C)cc1,inactive: 1.05
8,O=C(O)c1cc(=O)cc[nH]1,inactive: 1.01
9,COc1ccc(cc1)S(=O)(=O)N1C[C@]2(C1)CN([C@@H](CO)c1c2c2ccc(cc2n1C)OC)C(=O)CN(C)C,inactive: 0.921
10,C[C@H](CO)N1C[C@H](C)[C@H](CN(C)Cc2ccc(Cl)c(Cl)c2)Oc2ccc(NC(=O)Nc3ccc(C(F)(F)F)cc3)cc2CC1=O,inactive: 1
11,C[C@H](CO)N1C[C@H](C)[C@H](CN(C)Cc2ccc(-c3ccccc3)cc2)Oc2c(NC(=O)Nc3ccc4c(c3)OCO4)cccc2C1=O,inactive: 1.01
12,C[C@H]1CN([C@@H](C)CO)C(=O)c2cccc(NS(=O)(=O)c3cccs3)c2O[C@@H]1CN(C)S(=O)(=O)c1ccccc1,inactive: 0.982
13,C[C@@H]1CN([C@@H](C)CO)C(=O)c2cc(NC(=O)c3ccncc3)ccc2O[C@@H]1CN(C)S(=O)(=O)c1ccc(F)cc1,inactive: 1.03
14,C[C@@H]1CN([C@H](C)CO)C(=O)Cc2cc(NC(=O)Nc3cccc4ccccc34)ccc2O[C@@H]1CN(C)Cc1ccccc1,inactive: 1.02
15,COC[C@H]1CN(C(=O)CS(C)(=O)=O)Cc2nnn(CC3CC3)c21,inactive: 0.996
16,CN(C)CCC=C1c2ccccc2COc2ccc(CC(=O)O)cc21.Cl,active: 0.0442
17,COc1ccc(CN(C)C[C@@H]2OCCCC[C@@H](C)Oc3ccc(NC(=O)CCCCCC(=O)Nc4ccccc4N)cc3C(=O)N([C@H](C)CO)C[C@@H]2C)cc1,inactive: 0.986
18,CN(C)C(=O)c1ccc(CO)cc1,inactive: 0.983
19,O=C(C[C@@H]1CC[C@H]2[C@@H](COC[C@@H](O)CN2S(=O)(=O)c2cccc(F)c2)O1)NCc1ccncn1,inactive: 0.994
20,Cc1ccc(S[C@]2(C(=O)NC(C)C)CC(=O)N(Cc3cc(C(F)(F)F)cc(C(F)(F)F)c3)[C@@H]2c2ccc(CO)cc2)cc1,inactive: 1

row,Structure (SMILES),relative growth
1,C[C@@H](O)C(=O)O.N,inactive: 1
2,Cc1cc(C)n(C(=O)Cn2cc([N+](=O)[O-])cn2)n1,inactive: 0.942
3,Cc1noc(C)c1S(=O)(=O)Nc1ccc2c(c1)CC(=O)N([C@@H](C)CO)C[C@H](C)[C@H](CN(C)S(=O)(=O)c1cn(C)cn1)O2,inactive: 1.01
4,C[C@H](CO)N1C[C@H](C)[C@@H](CN(C)S(=O)(=O)c2ccc(Cl)cc2)Oc2ccc(NC(=O)Nc3cccc4ccccc34)cc2CC1=O,inactive: 1.03
5,CN1CCN(C(=O)C[C@@H]2CC[C@H]3[C@@H](COC[C@H](O)CN3CC3CCCC3)O2)CC1,inactive: 0.999
6,C[C@@H]1CN([C@@H](C)CO)C(=O)Cc2cc(NC(=O)CCCCCC(=O)Nc3ccccc3N)ccc2O[C@@H]1CN(C)CC1CCCCC1,inactive: 0.996
7,C[C@H]1CN([C@@H](C)CO)C(=O)c2cccc(NC(=O)Nc3ccc(C(F)(F)F)cc3)c2O[C@H]1CN(C)Cc1ccc(C(=O)Nc2ccccc2N)cc1,inactive: 1.05
8,CN1CCN(C(=O)C[C@@H]2CC[C@@H]3[C@H](COC[C@@H](O)CN3CC3CCCC3)O2)CC1,inactive: 0.987
9,O=C(C[C@H]1C[C@H]2c3cc(NC(=O)Cc4ccncc4)ccc3O[C@H]2[C@H](CO)O1)NCc1cccc(F)c1,inactive: 0.916
10,C[C@H]1CN([C@@H](C)CO)C(=O)Cc2cc(NS(=O)(=O)c3ccc(F)cc3)ccc2O[C@H]1CN(C)S(=O)(=O)c1ccccc1,inactive: 0.99
11,C[C@@H]1CN([C@H](C)CO)C(=O)c2cc(NC(=O)CCCCCC(=O)Nc3ccccc3N)ccc2O[C@H]1CN(C)C(=O)Nc1ccc(F)cc1,inactive: 1.04
12,COc1ccc(CN(C)C[C@H]2OCCCC[C@@H](C)Oc3ccc(NC(=O)Cc4ccccc4)cc3C(=O)N([C@@H](C)CO)C[C@@H]2C)cc1,inactive: 0.99
13,CCOC(=O)N(C)C[C@@H]1OCc2cnnn2CCCC(=O)N([C@@H](C)CO)C[C@H]1C,inactive: 1.03
14,C[C@@H]1CCCCO[C@@H](CN(C)CC2CC2)[C@H](C)CN([C@@H](C)CO)C(=O)c2cc(NC(=O)Nc3cccc4ccccc34)ccc2O1,inactive: 1
15,Cc1noc(C)c1NC(=O)N(C)C[C@H]1Oc2ccc(NS(=O)(=O)c3ccccc3)cc2C(=O)N([C@@H](C)CO)C[C@H]1C,inactive: 0.971
16,Cc1ccc(S(=O)(=O)N(C)C[C@@H]2Oc3ccc(NC(=O)NC(C)C)cc3CC(=O)N([C@H](C)CO)C[C@@H]2C)cc1,inactive: 0.972
17,CS(=O)(=O)n1cc2c(n1)CN([C@H]1CO[C@H](c3cc(F)ccc3F)[C@@H](N)C1)C2,inactive: 0.994
18,COc1cc(/C=C/c2cc(/C=C/c3ccc(O)c(OC)c3)n(Cc3ccc4c(c3)OCO4)c(=S)n2)ccc1O,inactive: 1.04
19,CCCC(=O)Nc1ccc2c(c1)OC[C@H](C)N(Cc1ccc(-c3ccccn3)cc1)C[C@H](C)[C@H](OC)CN(C)C2=O,inactive: 1.01
20,C[C@@H]1CCCCO[C@@H](CN(C)C)[C@@H](C)CN([C@H](C)CO)C(=O)c2cc(NC(=O)CCCCCC(=O)Nc3ccccc3N)ccc2O1,inactive: 1.02

row,Structure (SMILES),relative growth
1,COc1ccc(NC(=O)N(C)C[C@H]2Oc3c(NC(=O)CCCCCC(=O)Nc4ccccc4N)cccc3C(=O)N([C@@H](C)CO)C[C@H]2C)cc1,inactive: 1
2,C[C@@H]1CN([C@@H](C)CO)C(=O)CCCn2nncc2CO[C@@H]1CN(C)S(C)(=O)=O,inactive: 1.02
3,COCCOC(=O)N1C(=O)[C@@]2(c3cc(C#CC4(O)CCCCCC4)ccc31)[C@H](c1ccccc1OCCO)N1[C@H](c3ccccc3)[C@H](c3ccccc3)OC(=O)[C@H]1[C@@H]2C(=O)N1CCc2cc(OC)c(OC)cc2C1,inactive: 1.01
4,Cc1ccc(S(=O)(=O)N(C)C[C@H]2Oc3c(NS(=O)(=O)c4ccc(F)cc4)cccc3C(=O)N([C@H](C)CO)C[C@@H]2C)cc1,inactive: 1.03
5,Nc1cccc(Cn2cncn2)c1,inactive: 0.937
6,C[C@H]1CCCCO[C@@H](CN(C)C(=O)Nc2ccc(F)cc2)[C@@H](C)CN([C@@H](C)CO)C(=O)c2cc(NC(=O)C3CCCCC3)ccc2O1,inactive: 0.996
7,Cc1ccc(S[C@]2(C(=O)NCC(F)(F)F)CC(=O)N(C3Cc4ccccc4C3)[C@@H]2c2ccc(CO)cc2I)cc1,inactive: 1
8,C[C@@H]1CN([C@@H](C)CO)C(=O)CCCn2cc(nn2)CO[C@@H]1CN(C)C(=O)c1ccc(N2CCN(C)CC2)cc1,inactive: 1.02
9,C[C@@H]1CN([C@@H](C)CO)C(=O)c2cccc(NC(=O)Nc3ccccc3)c2O[C@@H]1CN(C)CC1CCCCC1,inactive: 1.01
10,CC1=NN(c2ccc(C)c(C)c2)C(=O)C1=NNc1cccc(-c2cccc(C(=O)O)c2)c1O,inactive: 1.01
11,COc1cccc(-c2ccc3c(c2)O[C@H](CN(C)C(=O)C2CCOCC2)[C@@H](C)CN([C@H](C)CO)S3(=O)=O)c1,inactive: 0.993
12,Cc1cc(C(=O)Nc2cccc3c2O[C@H](CN(C)Cc2ccc(C(=O)O)cc2)[C@@H](C)CN([C@@H](C)CO)C3=O)n(C)n1,inactive: 0.926
13,C[C@H](CO)N1C[C@H](C)[C@H](CN(C)S(=O)(=O)c2ccc(F)cc2)OCCCC[C@H](C)Oc2ccc(NC(=O)NC3CCCCC3)cc2C1=O,inactive: 0.989
14,Cc1noc(C)c1S(=O)(=O)Nc1ccc2c(c1)C(=O)N([C@@H](C)CO)C[C@H](C)[C@@H](CN(C)Cc1ccccc1)OCCCC[C@@H](C)O2,inactive: 0.992
15,COc1ccc(CNC(=S)NCCO)cc1,inactive: 1.02
16,COC(=O)c1c(CC[C@@H](CO)NC(=O)N[C@H](Cc2ccccc2)Cn2cc(-c3ccccc3N)nn2)oc(C(C)=O)c1C(=O)OC,inactive: 1.01
17,Cc1ccc(S(=O)(=O)Nc2ccc3c(c2)C(=O)N([C@H](C)CO)C[C@H](C)[C@@H](CN(C)Cc2ccccc2)OCCCC[C@H](C)O3)cc1,inactive: 1.04
18,CCS(=O)(=O)Nc1ccc2c(c1)C(=O)N(C)[C@H]1CC[C@H](CC(=O)NCCOC)O[C@H]1CO2,inactive: 0.995
19,C[C@H](O)C#Cc1ccc2c(c1)O[C@@H](CN(C)C(=O)Cc1ccccn1)[C@@H](C)CN([C@@H](C)CO)S2(=O)=O,inactive: 0.996
20,CC(C)NC(=O)Nc1cccc2c1O[C@H](CN(C)Cc1ccc3c(c1)OCO3)[C@@H](C)CN([C@H](C)CO)C2=O,inactive: 0.983
